At least one peptide structure holds a part that was inferred or is arguable (an end, a ring closure or a residue). For part of these data: For at least one compound, name, drawing or mass did not settle the structure. Numbered stars: 1 amine (or outer) side, 2 acyl side, 3 side chain; on linkers, the order of the positions; unused ones are H or OH. Bridge positions count the residues as written; N and C are the ends. Square brackets hold non-standard residues; d marks the D form. Peptide text beside a SMILES is read from it. dPhe(4-I) = N[C@H](Cc1ccc(I)cc1)C(=O)O; 2Nal = N[C@@H](Cc1ccc2ccccc2c1)C(=O)O; d1Nal = N[C@H](Cc1cccc2ccccc12)C(=O)O; d2Nal = N[C@H](Cc1ccc2ccccc2c1)C(=O)O; Maleoyl = O=C(/C=C\C(=O)[*:2])[*:1]; Suc = O=C(CCC(=O)[*:2])[*:1]; Nle = CCCC[C@H](N)C(=O)O; Orn = NCCC[C@H](N)C(=O)O
How the values were obtained:
human MC4 receptor = target: T1, human MC4 receptor (Homo sapiens, UniProt P32245); assay: Competitive binding assay, human MC4 receptor; settings: for IC50: CHO cell membranes expressing human MC4 receptor, 200 pM [125I]-NDP-α-MSH, three independent experiments, read-out: hMC-4R (binding data); for 3:4: selectivity ratio of hMC-3R to hMC-4R binding values; for 5:4: selectivity ratio of hMC-5R to hMC-4R binding values
T1 construct: expressed in transfected cells; host or cells: Chinese hamster ovary (CHO) cells
Description: (§1) The peptides of the present invention were evaluated for antagonist activity in receptor binding assay. Crude membrane preparations were obtained from Chinese hamster ovary cells expressing human MC3, MC4, and MC5 receptors. Cells were rinsed with phosphate-buffered saline (PBS) lacking CaCl2 or MgCl2 (Life Technologies, Gaithersburg, Md., USA), and then detached with enzyme-free dissociation media (Specialty Media, Lavellette, N.J., USA). Cells were pelleted at 2800×g for 10 min and resuspended in membrane buffer (20 mM Tris, pH 7.2, 5 mM ethylenediaminetetraacetic acid) with 5 μg/ml leupeptin, 5 μg/ml aprotinin, 40 μg/ml bacitracin, and 25 μg/ml pefabloc (Boehringer Mannheim). The cells were […] with 10 strokes by using a motor-driven Teflon-coated pestle in a glass homogenizer at low speed. The resulting cell suspension was centrifuged at 4100×g, 4° C., for 20 min. The pellet was resuspended in fresh membrane buffer with protease inhibitors, aliquoted, snap-frozen in liquid nitrogen, and stored at −80° C. The resulting crude membranes were titrated to determine the optimal level necessary for performing binding studies.
(§2) Binding reactions (total volume=250 μl) contained MBB (50 mM Tris, pH 7.2, 2 mM CaCl2, 1 mM MgCl2), 0.1% bovine serum albumin, crude membranes prepared from cells expressing human MC3, MC4, or MC5 receptor, 200 pM of [125I]-NDP-α-MSH (Amersham, Arlington Heighs, Ill., USA), and increasing concentrations of unlabeled test compounds dissolved in dimethylsulfoxide (final concentration=2%). Reactions were incubated for 1 h without shaking and then filtered through 96-well filter plates (Packard), presoaked in 1% polyethyleneimine. Filters were washed 3 times with TNE buffer (50 mM Tris, pH 7.4, 5 mM ethylene-diaminetetraacetic acid, 150 mM NaCl), dried and counted by using Microscint-20 in a Topcount scintillation counter (Packard).

human MC3 receptor = human MC3 receptor (Homo sapiens, UniProt P41968); assay: Competitive binding assay, human MC3 receptor; settings: read-out: hMC-3R (binding data); CHO cell membranes expressing human MC3 receptor; 200 pM [125I]-NDP-α-MSH; three independent experiments
human MC5 receptor = target: T2, human MC5 receptor (Homo sapiens, UniProt P33032); assay: Competitive binding assay, human MC5 receptor; settings: CHO cell membranes expressing human MC5 receptor; 200 pM [125I]-NDP-α-MSH; three independent experiments; read-out: hMC-5R (binding data)
T2 construct: expressed in transfected cells; host or cells: Chinese hamster ovary (CHO) cells
Description: as §1, §2

T1 sequence (P32245 whole entry): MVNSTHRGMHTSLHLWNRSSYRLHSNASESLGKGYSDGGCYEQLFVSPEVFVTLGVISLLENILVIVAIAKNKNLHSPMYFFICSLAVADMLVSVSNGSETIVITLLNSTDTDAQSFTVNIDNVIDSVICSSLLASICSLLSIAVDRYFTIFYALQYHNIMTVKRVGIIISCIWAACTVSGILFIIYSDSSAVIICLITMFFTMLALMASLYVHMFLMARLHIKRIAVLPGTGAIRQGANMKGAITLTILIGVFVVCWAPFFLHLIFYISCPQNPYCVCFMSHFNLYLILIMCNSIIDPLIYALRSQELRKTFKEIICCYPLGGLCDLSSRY
T2 sequence (P33032 whole entry): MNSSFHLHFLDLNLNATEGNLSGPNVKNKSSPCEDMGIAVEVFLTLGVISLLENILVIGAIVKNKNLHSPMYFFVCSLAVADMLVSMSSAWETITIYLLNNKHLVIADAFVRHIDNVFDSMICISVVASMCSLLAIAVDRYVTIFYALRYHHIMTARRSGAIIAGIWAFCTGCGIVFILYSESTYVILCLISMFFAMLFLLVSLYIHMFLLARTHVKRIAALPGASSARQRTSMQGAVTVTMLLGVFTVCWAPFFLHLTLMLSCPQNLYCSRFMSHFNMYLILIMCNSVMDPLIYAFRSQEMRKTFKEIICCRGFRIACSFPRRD
Chain of human MC3 receptor (P41968 whole entry): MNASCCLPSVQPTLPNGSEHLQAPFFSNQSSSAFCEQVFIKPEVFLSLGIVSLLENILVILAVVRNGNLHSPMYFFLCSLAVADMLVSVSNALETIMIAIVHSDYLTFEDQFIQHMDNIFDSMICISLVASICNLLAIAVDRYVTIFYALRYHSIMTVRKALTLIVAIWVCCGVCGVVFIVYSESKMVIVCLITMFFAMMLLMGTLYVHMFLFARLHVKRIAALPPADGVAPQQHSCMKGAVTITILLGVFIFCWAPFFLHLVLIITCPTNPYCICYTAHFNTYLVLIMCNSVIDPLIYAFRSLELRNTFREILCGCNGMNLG

Row | Compound | IC50 (human MC4 receptor) | 3:4 (human MC4 receptor) | 5:4 (human MC4 receptor) | IC50 (human MC3 receptor) | IC50 (human MC5 receptor)
1 | N=C(N)NCCC[C@@H]1NC(=O)[C@@H](Cc2ccc3ccccc3c2)NC(=O)[C@@H](N)CC(=O)NCCCC[C@@H](C(N)=O)NC(=O)[C@H](Cc2c[nH]c3ccccc23)NC1=O [Example 5] (H-D[d2Nal]RWK-NH2; lactam 1-5 (inferred); C-terminus assumed) | 4.3 ± 1.1 nM | 111 | 7 | 480 ± 140 nM | 
2 | N=C(N)NCCC[C@@H]1NC(=O)[C@@H](Cc2ccc3ccccc3c2)NC(=O)CCC(=O)NCCCC[C@@H](C(N)=O)NC(=O)[C@H](Cc2c[nH]c3ccccc23)NC1=O [Example 9] ([d2Nal]RWK-NH2; linker N-4 via Suc (inferred); C-terminus assumed) | 0.5 ± 0.2 nM | 300 | 500 |  | 
3 | N=C(N)NCCC[C@@H]1NC(=O)[C@@H](Cc2ccc3ccccc3c2)NC(=O)CCC(=O)NCCC[C@@H](C(N)=O)NC(=O)[C@H](Cc2c[nH]c3ccccc23)NC1=O [Example 10] ([d2Nal]RW[Orn]-NH2; linker N-4 via Suc (inferred); C-terminus assumed) | 0.4 ± 0.2 nM | 157 | 425 | 63 ± 24 nM | 170 ± 89 nM
4 | N=C(N)NCCC[C@@H]1NC(=O)[C@@H](Cc2ccc3ccccc3c2)NC(=O)/C=C\C(=O)NCCCC[C@@H](C(N)=O)NC(=O)[C@H](Cc2c[nH]c3ccccc23)NC1=O [Example 12] ([d2Nal]RWK-NH2; linker N-4 via Maleoyl) | 1.4 ± 0.3 nM |  |  |  | 
5 | N=C(N)NCCC[C@@H]1NC(=O)[C@@H](Cc2cccc3ccccc23)NC(=O)CCC(=O)NCCCC[C@@H](C(N)=O)NC(=O)[C@H](Cc2c[nH]c3ccccc23)NC1=O [Example 13] ([d1Nal]RWK-NH2; linker N-4 via Suc (inferred); C-terminus assumed) | 105 ± 9 nM | 25 | 15 | 2600 ± 2000 nM | 
6 | COc1ccc(C[C@H]2NC(=O)CCC(=O)NCCCC[C@@H](C(N)=O)NC(=O)[C@H](Cc3c[nH]c4ccccc34)NC(=O)[C@H](CCCNC(=N)N)NC2=O)cc1 [Example 15] ([dY](Me)RWK-NH2; linker N-4 via Suc (inferred); C-terminus assumed) | 47 ± 5 nM | 100 | 94 | 4700 ± 2500 nM | 4400 ± 900 nM
7 | N=C(N)NCCC[C@@H]1NC(=O)[C@@H](Cc2ccc(I)cc2)NC(=O)CCC(=O)NCCCC[C@@H](C(N)=O)NC(=O)[C@H](Cc2c[nH]c3ccccc23)NC1=O [Example 18] ([dPhe(4-I)]RWK-NH2; linker N-4 via Suc (inferred); C-terminus assumed) | 0.9 ± 0.1 nM | 190 | 114 | 170 ± 87 nM | 103 ± 45 nM
8 | CCCC[C@@H]1NC(=O)[C@@H](Cc2ccc3ccccc3c2)NC(=O)CCC(=O)NCCCC[C@@H](C(N)=O)NC(=O)[C@H](Cc2c[nH]c3ccccc23)NC1=O [Example 21] ([d2Nal][Nle]WK-NH2; linker N-4 via Suc (inferred); C-terminus assumed) | 160 ± 10 nM | 40 | 31 | 6400 ± 2200 nM | 5000 ± 1700 nM
9 | N=C(N)NCCC[C@@H]1NC(=O)[C@@H](Cc2ccc3ccccc3c2)NC(=O)CCC(=O)NCCCC[C@@H](C(N)=O)NC(=O)[C@H](Cc2ccc(I)cc2)NC1=O [Example 22] | 0.6 ± 0.1 nM | 200 | 120 | 120 ± 71 nM | 72 ± 43 nM
10 | COc1ccc(C[C@H]2NC(=O)CCC(=O)NCCCC[C@@H](C(N)=O)NC(=O)[C@H](Cc3ccc4ccccc4c3)NC(=O)[C@H](CCCNC(=N)N)NC2=O)cc1 [Example 23] ([dY](Me)R[2Nal]K-NH2; linker N-4 via Suc (inferred); C-terminus assumed) | 4.7 ± 0.2 nM | 138 | 100 | 650 ± 170 nM | 470 ± 150 nM

— patent US6693165B2 (Merck & Co., Inc., priority 2000, dated 2004)
